# The supplement of paper PMC4166925
# ± gives the standard deviation of the averaged measurements. The full ranking holds about 33,000 sequences; the median of “E-score (dimensionless, -0.5 to 0.5)” is about -0.049, and the highest 2% start at about 0.37. This is one part of the list.
# Tested on: T1, PmTbr T-box DNA-binding domain (GST fusion)
# T1 sequence: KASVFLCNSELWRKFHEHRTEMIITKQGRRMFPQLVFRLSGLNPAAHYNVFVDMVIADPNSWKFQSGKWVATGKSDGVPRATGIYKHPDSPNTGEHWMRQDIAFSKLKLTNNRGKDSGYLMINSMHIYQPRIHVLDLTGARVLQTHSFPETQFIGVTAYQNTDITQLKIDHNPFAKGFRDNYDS
# Experiment: PBM E-score of 8-mer (E-score (dimensionless, -0.5 to 0.5)); Tbr is Tbrain of the sea star Patiria miniata (Pm) or the sea urchin Strongylocentrotus purpuratus (Sp); higher = stronger binding preference; most listed sequences are background and not binding sites
# Conditions: the construct has about 5 more residues each side
# Protocol: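 Universal protein-binding microarray (Agilent AMADID 016060, 60-bp probes with a 35-bp variable region) incubated with 200 nM GST-fused Patiria miniata Tbr T-box DNA-binding domain (residues 272-466) in PBS pH 7.5. Scored for every ungapped 8-mer (given with its reverse complement) by the Universal PBM Analysis Suite as E-score (modified Wilcoxon-Mann-Whitney enrichment, range -0.5 to 0.5; >0.45 counts as bound) and Z-score of median probe intensity. Two replicate arrays (datasets 1 and 2).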
# 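Also: 200 nM protein in PBS on universal arrays averaged over duplicate arrays.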
row,Sequence,PBM E-score of 8-mer
1,ATTCCATC,-0.0954 ± 0.0028
2,AGGAAACT,-0.139 ± 0.027
3,CGGGCGGA,-0.189 ± 0.04
4,AAAGATAA,-0.0676 ± 0.051
5,GGCCTTAC,-0.143 ± 0.0078
6,CAGGACCG,-0.191 ± 0.015
7,CTACAGGA,0.116 ± 0.046
8,AAATGATC,-0.0225 ± 0.031
9,CGGGCTCC,-0.332 ± 0.0046
10,CGTGTGTC,0.204 ± 0.018
11,ATGCTTCG,0.051 ± 0.046
12,GCCAATTA,0.138 ± 0.0052
13,ACGTTTAG,-0.0795 ± 0.0073
14,ACAGGATC,-0.0274 ± 0.015
15,CTCACGTC,0.264 ± 0.018
16,GAAACGAA,0.0128 ± 0.033
17,AAAATATG,-0.169 ± 0.0037
18,CGGGACTA,-0.0323 ± 0.069
19,CCCAATTA,-0.0701 ± 0.005
20,CCACATGA,0.00817 ± 0.0018
21,GAAGTGAC,0.379 ± 0.017
22,CGAAGGGC,-0.169 ± 0.0098

row,Sequence,PBM E-score of 8-mer
1,CGACCTCG,0.14 ± 0.074
2,ACAATAAT,0.0359 ± 0.05
3,TCACGAGA,0.153 ± 0.097
4,ACTGAAGC,0.108 ± 0.028
5,CACTCCTG,0.0992 ± 0.0078
6,GCACCAGA,-0.03 ± 0.061
7,CCGCTTTC,-0.0798 ± 0.036
8,AGCCGCAA,0.0636 ± 0.056
9,GGGCTTCA,-0.203 ± 0.028
10,ATAGTCAG,-0.0739 ± 0.082
11,CAAACGCG,0.0696 ± 0.011
12,ATTACCTC,-0.222 ± 0.01
13,AACGCGAC,0.194 ± 0.092
14,GCGTTAGA,0.189 ± 0.00094
15,AATTAACG,-0.0199 ± 0.0039
16,ATGCAAAG,-0.0353 ± 0.024
17,AATGCACT,0.0636 ± 0.028
18,TGCCGACA,0.264 ± 0.01
19,CCATTGTA,-0.0826 ± 0.004
20,TACAAGCA,-0.00648 ± 0.038
21,ACGTATAT,-0.0151 ± 0.029
22,CCCGAAAC,0.0499 ± 0.032

row,Sequence,PBM E-score of 8-mer
1,ATCTGGTC,-0.152 ± 0.093
2,GACAAACA,0.125 ± 0.0063
3,TGATGCAA,-0.0634 ± 0.069
4,ACCCGGAA,-0.214 ± 0.041
5,CAAAATTC,-0.214 ± 0.0047
6,CTGAAGGC,-0.209 ± 0.064
7,TATTTAGA,-0.234 ± 0.029
8,GTCTAGAA,-0.157 ± 0.048
9,CATCCCCG,-0.089 ± 0.0054
10,ATGATAGC,0.125 ± 0.034
11,AAGAATTA,-0.115 ± 0.075
12,GAAAGTCA,-0.106 ± 0.012
13,AAAGCCCA,-0.318 ± 0.025
14,GCTTACGA,-0.175 ± 0.0062
15,GTAATAGA,-0.114 ± 0.0055
16,ATTCTAAC,-0.231 ± 0.014
17,CGTCTCAA,-0.199 ± 0.018
18,AAAGAAAA,-0.0363 ± 0.13
19,CCCCTTAC,-0.192 ± 0.063
20,AATTTACA,0.185 ± 0.084
21,AGTATACG,0.0235 ± 0.017
22,ATAACATC,-0.101 ± 0.065

row,Sequence,PBM E-score of 8-mer
1,CAATAGCA,0.117 ± 0.08
2,ACTACGCC,-0.0843 ± 0.0083
3,GGAAAGAA,-0.255 ± 0.048
4,ATGGTATA,-0.0748 ± 0.057
5,TGGCGCCA,0.309 ± 0.0053
6,ACTGGGTC,-0.119 ± 0.079
7,CCTGGGAC,-0.131 ± 0.0099
8,TGCGCCAA,0.175 ± 0.014
9,CGGGGTCA,-0.187 ± 0.032
10,AACCTCTG,-0.151 ± 0.032
11,CCCTCCCA,-0.132 ± 0.0075
12,AACAAGTA,0.161 ± 0.051
13,AAGATCCA,-0.165 ± 0.029
14,CTTTCTTA,-0.0589 ± 0.096
15,GTTCAATA,-0.161 ± 0.06
16,CTTCCGGA,-0.287 ± 0.054
17,GCGTAATA,0.146 ± 0.028
18,AGTACGCG,-0.0961 ± 0.015
19,GACTCGGC,-0.00342 ± 0.13
20,TATCCCCA,-0.248 ± 0.049
